# In the supplement of paper PMC11417369:
# The list shows a part of the results.
# Tested on: PfSIP2 AP2 domain 1 (GST-tagged)
# Test: gcPBM binding intensity (ln(normalized median fluorescence intensity)); higher = stronger DNA binding
# Summary of the method: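 The binding buffer was 1× PBS containing 1% milk, 0.2 mg/ml BSA, 0.5% salmon testes DNA and 0.03% Triton X-100. In it, GST-tagged P. falciparum DNA-binding domains expressed in E. coli were applied for 1 h to an Agilent 4 × 180k array of primer-extended double-stranded 36-bp intergenic genomic probes plus negative controls. Binding intensity, read with Alexa488 anti-GST antibody and a 488 nm scan, is the highest Masliner-normalised natural-log median intensity across replicate spots of either probe orientation.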
row,Sequence,gcPBM binding intensity (ln)
1,TATTAATTATAAGATGCATGTGCAAAAATATGTTCC [TGCATGCA_site51],7.6
2,TTTCTTTGTATTTATAGTACATATTTTAATAACTGC [XGTACX_site6673],7.08
3,ATAATATTTTATTATACATGCAAATTATTATATATA [TGCATGCA_site40],6.79
4,TTTCCGGTAATATGGAGATATATGTGGGTTTTTTTT [GTGCAC_negctrl_site374],6.65
5,ACAAAATTTACAAAATGTACAAAGTATGTGTTTTAT [XGTACX_site6462],6.85
6,ATATTTTTTTTTTTCACACACATTTATATTGTATTA [CACACA_site5695],7.24
7,AGAAAAAAGAGGGATACACACAAACATATATTTATA [CACACA_site7122],6.93
8,GATTAAAATCAAAGGTGTACGCACAAATAAGTCCCA [XGTACX_site4360],6.89
9,CACCCTTTGTTTTAGAGTACATATGTATATACGTAA [XGTACX_site7964],7.53
10,TATATATATTTATGTACACACATATATACCTTTCAT [CACACA_site5479],7.58
11,AACTTGTATTTATACACACACACACTAGCTTTTTTT [CACACA_site5132],6.94
12,AGAATTAAAAACAGTTGTACAAAAAGTTGTATAAAT [XGTACX_site411],6.95
13,TATAGCTTTCATTATACACACATCAAAAATTTAAAT [CACACA_site227],7.29
14,AGTAATAAATTTTATACATGCATAAAAAAAAAAAAA [TGCATGCA_site661],7.03
15,TTAAAAATCATTTAAGAACACACAAATATTTCCATT [CACACA_site8418],6.79
16,TATATTTATTTTTAATGTACATATTTAAGAAAACTA [XGTACX_site4920],7.36
17,GACTCATTAAGGATTATTCCTAATGATCAAAAGAAC [CACACA_negctrl_site515],7.12
18,TGATTCTTTTCAAAGTGTACAGTAATTTTTATGTAA [XGTACX_site8452],7.05
19,TATATAATTCAAAAATGTACATGAAATATAAATATT [XGTACX_site7984],6.78

row,Sequence,gcPBM binding intensity (ln)
1,ATATTATAAATTATAGGTACACACAAAAAAAAAAAG [XGTACX_site2637],7.3
2,AAGTTTTCTTAAAGATGTACTTTTTAAAAATAAAAT [XGTACX_site3063],7.02
3,AAATATATTGCATATATACACACGTATATATATTAA [CACACA_site2759],6.97
4,ATATCAAGCTATGAGAAAAAAAAAAAGAAAAAAAAA [CACACA_negctrl_site1370],6.89
5,TTAAATAAAAAAATAACACACATATAAATCTATATG [CACACA_site7482],6.72
6,GCCATTAATTTATACACACACATTATAACTTTTTAT [CACACA_site6492],7.44
7,TATCAGCAATGGAAAACATGCAAAAAATTAATATAT [TGCATGCA_site623],6.97
8,TCTTCAAAGACACAATCACACACATACATAAATATA [CACACA_site8128],7.16
9,AATACGTTTCAAAAATGTACACATATATCATAAATA [XGTACX_site8962],7.26
10,ATCAAAAATGTTATATATATATATATATATATATAT [TGCATGCA_negctrl_site71],9.85
11,TTTTATTTTCGATGATGTACATTAAATTATACAGTA [XGTACX_site6053],7.01
12,AAATATTACTCCTCAAGTACACATAAAAAAAAAATA [XGTACX_site2085],7.25
13,TATTTTTTTTGATATTGTACTTTTTTATTATTTTTT [XGTACX_site566],7.04
14,TAAAAATTTAAGAAAACATGCATCTAACATATATAT [TGCATGCA_site342],7.13
15,AATATACAAAATAAATAAAATATATATATATATATA [CACACA_negctrl_site216],9.48
16,TTACATGCTAAAATTTGTACATATATGATAAATATT [XGTACX_site2648],7.06
17,ATACATAAATTTATACGTACATATATAGATACATAA [XGTACX_site675],7.38
18,TTGTTTTCACCAAATACACACAAGCATACACCCCAT [CACACA_site2717],7.49
19,AAGTAAAATAAGTATACACACATAAATATGTAAATA [CACACA_site6467],6.9

row,Sequence,gcPBM binding intensity (ln)
1,GTATATATGTATGTATGTACTTATAAAGTTGCATAT [XGTACX_site5616],7.42
2,TCTACATCTGTATATAAACACACAACAAAAATGCTT [CACACA_site9271],6.81
3,TATTTATTGTGATACTTATATTATTTCATGATTAAT [CACACA_negctrl_site738],6.88
4,ACTTTATTATATATTTGTACATATATTTTTAATTTC [XGTACX_site4144],7.34
5,TATATATTTCAATAATGTACATATAATATATATATT [XGTACX_site4124],7.01
6,TTCTTACACAAAAAAATGAAATCAATCAAAAAAAAA [CACACA_negctrl_site869],6.98
7,AATGTGTAGACACGCACACACAAAAAAATATTTATA [CACACA_site7384],7.01
8,AAGTAATCATCATAAAGTACTAAATTATATTGTCAA [XGTACX_site5841],6.76
9,GAAAATATATTTAAGATGCACTTTAAAAATGTACTT,8.4
10,AAATTATATATAAAATGTACATATGTAGGTAATTTT [XGTACX_site5047],7.07
11,ACATTCTGATGGTGATTATTAATTATTACAAAAATT [CACACA_negctrl_site283],6.95
12,CAATTTATTATATATGTGCACATATAATTTTACAAA,8.31
13,TAATTATTTTTATTGTTGCACTAGTAAAATTTTAAG [GTGCAC_site9946],8.83
14,AATACAAATATATATGCACACACATATACATACATA [CACACA_site8677],7.25
15,TACATTTTAATATAAGCATGCCTTTAGTTTTTTTCT [TGCATGCA_site829],6.61
16,AAAAAGAAATACAAATAATATATATATATATATATT [TGCATGCA_negctrl_site458],7.57
17,CATAAAAATTGAAGCACACACACAAAAGAAATACAA [CACACA_site1112],7.05
18,AATAAACAAATAAATAAACACACAATATATGTATAT [CACACA_site9268],6.88
